Test results reported in US20240059691A1 (KALVISTA PHARMACEUTICALS LIMITED, priority 2020, published 2024).
The name of at least one read-out is uncertain.

molecular target: Human Factor XIIa (Homo sapiens (Human), UniProt P00748); experiment: Determination of FXIIa inhibition (fluorogenic substrate H-DPro-Phe-Arg-AFC, IC50 assay); format: biochemical; conditions: substrate H-DPro-Phe-Arg-AFC at Km, 25° C.; class scale H1-H3 for compounds that did not achieve 50% inhibition
Method: Determination of FXIIa Inhibition
In vitro inhibition of Factor XIIa was determined using an IC50 assay based on standard literature methods (see e.g Baeriswyl et al., ACS Chem. Biol., 2015, 10 (8) 1861; Bouckaert et al., European Journal of Medicinal Chemistry 110 (2016) 181). Human Factor XIIa (Enzyme Research Laboratories) was incubated at 25° C. with the fluorogenic substrate H-DPro-Phe-Arg-AFC (Peptide Protein Science) and various concentrations of the test compound. Protease activity was measured by monitoring the accumulation of liberated fluorescence from the substrate over 5 min at 25° C. The linear rate of fluorescence increase per minute was expressed as percentage (%) activity. The Km for the cleavage of the substrate by FXIIa was determined by standard transformation of the Michaelis-Menten equation. The compound inhibitor assays were performed at substrate Km concentration. IC50 values were calculated as the concentration of inhibitor giving 50% inhibition (IC50) of the uninhibited enzyme activity (100%).

Sequence of Human Factor XIIa (P00748 373-615): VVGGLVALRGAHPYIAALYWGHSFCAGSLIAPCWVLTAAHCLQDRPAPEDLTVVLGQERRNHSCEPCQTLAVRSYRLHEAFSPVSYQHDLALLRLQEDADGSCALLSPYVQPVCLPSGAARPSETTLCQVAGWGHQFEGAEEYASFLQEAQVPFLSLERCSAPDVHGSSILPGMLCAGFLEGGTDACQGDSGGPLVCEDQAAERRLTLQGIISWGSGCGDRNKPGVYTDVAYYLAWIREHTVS

SMILES	Human FXIIa IC50 (nM): test compounds that did not achieve 50% inhibition
CN1CCC(CNc2ccc(CNc3cnn(-c4cccc(Cl)c4)c3)cn2)CC1 [Example 1116, 5-(((1-(3-chlorophenyl)-1H-pyrazol-4-yl)amino)methyl)-N-((1-methylpiperidin-4-yl)methyl)pyridin-2-amine]	H2 (>20% inhibition @ 100 μM)
Nc1ncc(Cl)c2cc(NCc3ccc(N4CCn5nccc5C4)nc3)ccc12 [Example 1157, 4-chloro-N6-((6-(6,7-dihydropyrazolo[1,5-a]pyrazin-5(4H)-yl)pyridin-3-yl)methyl)isoquinoline-1,6-diamine]	H1 (>20% inhibition @ 40 μM)
COc1ccc2ncc(NCc3ccc(NCC4CCN(C)CC4)nc3)cc2c1 [Example 1177, 6-methoxy-N-((6-(((1-methylpiperidin-4-yl)methyl)amino)pyridin-3-yl)methyl)quinolin-3-amine]	H2 (>20% inhibition @ 100 μM)
COc1cccc2ccc(NCc3ccc(NCC4CCN(C)CC4)nc3)cc12 [Example 1178, 5-(((8-methoxynaphthalen-2-yl)amino)methyl)-N-((1-methylpiperidin-4-yl)methyl)pyridin-2-amine]	H2 (>20% inhibition @ 100 μM)
COc1ccc2cc(NCc3ccc(NCC4CCN(C)CC4)nc3)ccc2c1 [Example 1180, 5-(((6-methoxynaphthalen-2-yl)amino)methyl)-N-((1-methylpiperidin-4-yl)methyl)pyridin-2-amine]	H2 (>20% inhibition @ 100 μM)
CN1CCC(CNc2ccc(CNc3cnc4ccccc4c3)cn2)CC1 [Example 1183, N-((6-(((1-methylpiperidin-4-yl)methyl)amino)pyridin-3-yl)methyl)quinolin-3-amine]	H2 (>20% inhibition @ 100 μM)
CN1CCC(CNc2ccc(CNc3ccc(N(C)C)nn3)cn2)CC1 [Example 1186, N3,N3-dimethyl-N6-((6-(((1-methylpiperidin-4-yl)methyl)amino)pyridin-3-yl)methyl)pyridazine-3,6-diamine]	H2 (>20% inhibition @ 100 μM)
CN1CCC(CNc2ccc(CNc3cnc4cccnn34)cn2)CC1 [Example 1187, N-((6-(((1-methylpiperidin-4-yl)methyl)amino)pyridin-3-yl)methyl)imidazo[1,2-b]pyridazin-3-amine]	H2 (>20% inhibition @ 100 μM)
CN1CCC(CNc2ccc(CNc3cccn4ccnc34)cn2)CC1 [Example 1190, N-((6-(((1-methylpiperidin-4-yl)methyl)amino)pyridin-3-yl)methyl)imidazo[1,2-a]pyridin-8-amine]	H2 (>20% inhibition @ 100 μM)
CN1CCC(CNc2ccc(CNc3ccc4[nH]cnc4c3F)cn2)CC1 [Example 1191, 4-fluoro-N-((6-(((1-methylpiperidin-4-yl)methyl)amino)pyridin-3-yl)methyl)-1H-benzo[d]imidazol-5-amine]	H2 (>20% inhibition @ 100 μM)
CN1CCC(CNc2ccc(CNc3nc4ccccc4n3C)cn2)CC1 [Example 1192, 1-methyl-N-((6-(((1-methylpiperidin-4-yl)methyl)amino)pyridin-3-yl)methyl)-1H-benzo[d]imidazol-2-amine]	H2 (>20% inhibition @ 100 μM)
CN1CCC(CNc2ccc(CNc3cc4c(=O)[nH]ccn4c3)cn2)CC1 [Example 1199, 7-(((6-(((1-methylpiperidin-4-yl)methyl)amino)pyridin-3-yl)methyl)amino)pyrrolo[1,2-a]pyrazin-1(2H)-one]	H2 (>20% inhibition @ 100 μM)
COc1cccc2sc(NCc3ccc(NCC4CCN(C)CC4)nc3)nc12 [Example 1200, 4-methoxy-N-((6-(((1-methylpiperidin-4-yl)methyl)amino)pyridin-3-yl)methyl)benzo[d]thiazol-2-amine]	H2 (>20% inhibition @ 100 μM)
CN1CCC(CNc2ccc(CNc3cc(C(=O)O)c4cnccc4c3)cn2)CC1 [Example 1203, 6-(((6-(((1-methylpiperidin-4-yl)methyl)amino)pyridin-3-yl)methyl)amino)isoquinoline-8-carboxylic acid]	H2 (>20% inhibition @ 100 μM)
CN1CCC(CNc2ccc(CNc3cc(C(=O)O)c4[nH]cc(Cl)c4c3)cn2)CC1 [Example 1204, 3-chloro-5-(((6-(((1-methylpiperidin-4-yl)methyl)amino)pyridin-3-yl)methyl)amino)-1H-indole-7-carboxylic acid]	H2 (>20% inhibition @ 100 μM)
CNC(=O)c1cc(NCc2ccc(NCC3CCN(C)CC3)nc2)cc2ccncc12 [Example 1210, N-methyl-6-(((6-(((1-methylpiperidin-4-yl)methyl)amino)pyridin-3-yl)methyl)amino)isoquinoline-8-carboxamide]	H2 (>20% inhibition @ 100 μM)
CN1CCC(CNc2ccc(CNc3cnc4[nH]cc(C#N)c4c3)cn2)CC1 [Example 1212, 5-(((6-(((1-methylpiperidin-4-yl)methyl)amino)pyridin-3-yl)methyl)amino)-1H-pyrrolo[2,3-b]pyridine-3-carbonitrile]	H2 (>20% inhibition @ 100 μM)
CN1CCC(CNc2ccc(CNc3ccc(F)c4cnccc34)cn2)CC1 [Example 1214, 8-fluoro-N-((6-(((1-methylpiperidin-4-yl)methyl)amino)pyridin-3-yl)methyl)isoquinolin-5-amine]	H2 (>20% inhibition @ 100 μM)
Cc1cc(NCc2ccc(NCC3CCN(C)CC3)nc2)c2cc[nH]c2c1 [Example 1215, 6-methyl-N-((6-(((1-methylpiperidin-4-yl)methyl)amino)pyridin-3-yl)methyl)-1H-indol-4-amine]	H2 (>20% inhibition @ 100 μM)
Cc1cc2c(NCc3ccc(NCC4CCN(C)CC4)nc3)ccnc2n1C [Example 1216, 1,2-dimethyl-N-((6-(((1-methylpiperidin-4-yl)methyl)amino)pyridin-3-yl)methyl)-1H-pyrrolo[2,3-b]pyridin-4-amine]	H2 (>20% inhibition @ 100 μM)
CN1CCC(CNc2ccc(CNc3ccnc4[nH]ncc34)cn2)CC1 [Example 1218, N-((6-(((1-methylpiperidin-4-yl)methyl)amino)pyridin-3-yl)methyl)-1H-pyrazolo[3,4-b]pyridin-4-amine]	H2 (>20% inhibition @ 100 μM)
CNC(=O)c1cc(NCc2ccc(NCC3CCN(C)CC3)nc2)cc2c(Cl)c[nH]c12 [Example 1220, 3-chloro-N-methyl-5-(((6-(((1-methylpiperidin-4-yl)methyl)amino)pyridin-3-yl)methyl)amino)-1H-indole-7-carboxamide]	H2 (>20% inhibition @ 100 μM)
CN1CCC(CNc2ccc(CNc3ccnc4[nH]cc(C#N)c34)cn2)CC1 [Example 1221, 4-(((6-(((1-methylpiperidin-4-yl)methyl)amino)pyridin-3-yl)methyl)amino)-1H-pyrrolo[2,3-b]pyridine-3-carbonitrile]	H2 (>20% inhibition @ 100 μM)
CN1CCC(CNc2ccc(CNc3ccn4ccnc4c3)cn2)CC1 [Example 1222, N-((6-(((1-methylpiperidin-4-yl)methyl)amino)pyridin-3-yl)methyl)imidazo[1,2-a]pyridin-7-amine]	H2 (>20% inhibition @ 100 μM)
CN1CCC(CNc2ccc(CNc3ccnc4c3ccn4C)cn2)CC1 [Example 1225, 1-methyl-N-((6-(((1-methylpiperidin-4-yl)methyl)amino)pyridin-3-yl)methyl)-1H-pyrrolo[2,3-b]pyridin-4-amine]	H2 (>20% inhibition @ 100 μM)
CN1CCC(CNc2ccc(CNc3ncnc4[nH]ccc34)cn2)CC1 [Example 1227, N-((6-(((1-methylpiperidin-4-yl)methyl)amino)pyridin-3-yl)methyl)-7H-pyrrolo[2,3-d]pyrimidin-4-amine]	H2 (>20% inhibition @ 100 μM)
Cc1cc2c(NCc3ccc(NCC4CCN(C)CC4)nc3)cccc2[nH]1 [Example 1228, 2-methyl-N-((6-(((1-methylpiperidin-4-yl)methyl)amino)pyridin-3-yl)methyl)-1H-indol-4-amine]	H2 (>20% inhibition @ 100 μM)
CN1CCC(CNc2ccc(CNc3ccnc4[nH]cnc34)cn2)CC1 [Example 1229, N-((6-(((1-methylpiperidin-4-yl)methyl)amino)pyridin-3-yl)methyl)-3H-imidazo[4,5-b]pyridin-7-amine]	H2 (>20% inhibition @ 100 μM)
CN1CCC(CNc2ccc(CNc3cccc4[nH]ccc34)cn2)CC1 [Example 1230, N-((6-(((1-methylpiperidin-4-yl)methyl)amino)pyridin-3-yl)methyl)-1H-indol-4-amine]	H2 (>20% inhibition @ 100 μM)
